Several values for one entry are separate records, joined by “and”; a condition that tells them apart may be missing. Identical values can stand only once.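 Step 1: Grow cells in 96-well plates. Step 2: Expose to compound for 48 hours at 5 concentrations. Step 3: Interpolate endpoints linearly; if unreached, use highest concentration. Here, GI50 denotes the concentration required for 50% inhibition of growth. TGI denotes the concentration required for complete inhibition of growth.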

GI50 and TGI data for 85 molecules are collected here from PubChem BioAssay (NCI).

The test relates to NCI-H322M lung. The experiment in a line: NCI tumour cell line growth inhibition, 48 h.
Take `Cn1c(-c2c(N)n(CCCN3CCOCC3)c3nc(C#N)c(C#N)nc23)nc2ccccc21`: the GI50 was more than 53.6 µM and the TGI was more than 100 µM.
Take `Cc1ccc(S(=O)(=O)NC(CN)C(=O)O)cc1` (centres undefined): the TGI was more than 100 µM.
With `O=C(Nc1nc2c(ncn2C2OC(CO)C(O)C2O)c(=O)[nH]1)c1ccccc1` (centres undefined), the TGI was more than 100 µM.
On to `CCOC(=O)Oc1ccc2c(c1)c(=O)c1c(NCCN(CC)CC)ccc3nnn2c31`, for which the TGI came to 15.9 µM.
Consider `COc1cc2nc3cc([N+](=O)[O-])ccc3c(NCCNCC(C)(C)O)c2cc1OC`, for which the GI50 is 0.731 µM and the TGI was 3.97 µM.
Take `O=C(CN1C(=O)S/C(=C\C(Cl)=C\c2ccccc2)C1=O)NC1C=CS(=O)(=O)C1` (centres undefined): the GI50 was 2.92 µM and the TGI turned out to be 24 µM.
Molecule `COc1ccccc1C[C@@H]1OC2(C=CC(=O)C=C2)O[C@H]1Cc1ccccc1OC` displayed a TGI of more than 50 µM.
In the case of `N#CC1c2ccccc2C=CN1C(=O)N(c1ccccc1)c1ccccc1` (centres undefined), the GI50 was 6.95 µM and the TGI came out at 20.2 µM.
Molecule `COc1ccc(/C=C/C(=O)c2sc(-n3nc(-c4ccccc4)cc3-c3ccccc3)nc2C)cc1` registered a TGI of more than 100 µM.
Same read-out and setting: to `O=C(CCc1ccccc1)ON1C(=S)C(c2ccccc2)(c2ccccc2)N=C1Sc1ccccc1` belongs more than 100 µM.
Turning to `CSc1ccc2c(c1)C(N1CCN(C)CC1)Cc1ccccc1S2` (centres undefined), the GI50 is 2.53 µM; the TGI is 20.9 µM and 8.2 µM.
In turn, `CCN(CC)c1ccc(/C=C/C=C2C(=O)NC(=S)NC2=O)cc1` gave a TGI of more than 100 µM.
Same read-out and setting: the same measure for `C[Si](C)(c1ccccc1)[C@H]1CCCC=C1CCNC1c2ccccc2CCc2ccccc21`: more than 100 µM.
For `CN(c1ccccc1)c1c(Cl)c(=O)oc2c1ccc1occc12`, the TGI is more than 100 µM.
For `CN(Cc1cnc2nc(N)nc(N)c2n1)c1ccc(C(=O)NC(CCC(=O)O)C(=O)O)cc1Br` (centres undefined), the GI50 is less than 0.01 µM and the TGI was 42 µM.
`c1cnc(N2CCN(Cc3c[nH]c4ccccc34)CC2)nc1`: the TGI was more than 100 µM.
With `COc1cc2cc(Oc3ccc(NC(=O)Nc4ccc(Cl)c(Cl)c4)cc3)c(C)nc2cc1OC`, the GI50 was 8.66 µM and the TGI was determined as 60.3 µM.
Consider `CC(=O)[CH-]C(=O)c1ccccc1.CC(=O)[CH-]C(=O)c1ccccc1.C[C@]12CCC(=O)C=C1CC[C@@H]1C2CC[C@@]2(C)C1CC[C@]2(C)[O-].C[C@]12CCC(=O)C=C1CC[C@@H]1C2CC[C@@]2(C)C1CC[C@]2(C)[O-].Cl.[Ti+4]` (some centres undefined), for which the GI50 is 30.2 µM and the TGI is more than 100 µM.
For the molecule `CCc1nc(N)nc(N)c1-c1ccc(N2CCNCC2)cc1`, the TGI is more than 100 µM.
For `CC(=O)c1c(C)[nH]c(-c2nc3ccc(N4CCN(C)CC4)cc3[nH]2)c1-c1ccccc1`, the GI50 was 2.26 µM and the TGI came to 31.9 µM.
`O=C(NC(=S)NC(=O)c1cc(O)c(O)c(O)c1)c1cc(O)c(O)c(O)c1` displayed a TGI of 49.4 µM.
For `COc1ccc(-n2sc3ncccc3c2=O)cc1`, the TGI was more than 100 µM.
With `CCCC(CCN)(CCN)[N+](=O)[O-]`, the TGI was more than 100 µM.
`CCn1c(SCC(=O)NNC(=S)NC)nc2ccccc2c1=O` displayed a TGI of more than 100 µM.
As for `O=[N+]([O-])c1cccc(C2CC(c3ccccc3)=Nc3ccccc3S2)c1` (centres undefined), the GI50 was 34.8 µM and the TGI is more than 100 µM.
`CCSc1c2ccccc2c(-c2nc(F)nc(F)n2)n1CCc1ccccc1` had a TGI of more than 100 µM.
Take `O=C(OCC(Cl)(Cl)Cl)O[C@@H]1CCCC1(c1ccccc1)c1ccccc1`: the TGI is more than 100 µM.
Take `Cc1ccc(S(=O)(=O)N/N=C(/c2nc3ccc([N+](=O)[O-])cc3[nH]c2=O)C(O)c2ccc(C(O)/C(=N\NS(=O)(=O)c3ccc(C)cc3)c3nc4ccc([N+](=O)[O-])cc4[nH]c3=O)cc2)cc1` (centres undefined): the TGI was more than 100 µM.
In turn, `COc1cccc(/C=N/[N-]C(N)=O)c1[O-].[Cu+2].[OH3+].c1ccc(-c2ccccn2)nc1` came in with a TGI of more than 88.1 µM.
Molecule `CC1(C)CC(=O)C2=C(C1)OC1=C(CC(C)(C)CC1=O)C2c1ccccc1[N+](=O)[O-]` (centres undefined) gave a TGI of more than 100 µM.
As for `Cn1ncc(Cl)c1-c1cc(C(=O)N[C@H](CN)Cc2ccc(F)c(F)c2)oc1Cl`, the GI50 was 3.75 µM and 2.51 µM; the TGI was 17.5 µM and > 10 µM.
The molecule `Brc1ccc2ns[s+]c2c1` displayed a TGI of more than 100 µM.
`COc1ccc(/C(C#N)=C2C=C/C(=N/O)c3ccccc3\2)cc1`: the GI50 was 0.579 µM and the TGI amounted to 28.4 µM.
With `COc1cc2nc(-c3cccs3)[nH]c(=O)c2cc1OC`, the TGI was more than 100 µM.
In the case of `CCC(=O)c1c(C(F)(F)F)n([O-])c2cc(F)c(F)cc2[n+]1=O`, the GI50 was 1.6 µM and the TGI worked out at 3.2 µM.
For `Cn1cc(C2=C(c3cn(CCCCCSC(=N)N)c4ccccc34)C(=O)NC2=O)c2ccccc21`, the GI50 was 3.61 µM and the TGI stood at 7.06 µM.
For the molecule `CC(C)C1N(C)c2ccc(Cl)cc2[C@H]2c3ccccc3CCN12` (some centres undefined), the TGI is more than 100 µM.
`N#C[C@H](c1nc2ccccc2s1)c1nc2ccccc2nc1Cl` came in with a TGI of more than 100 µM.
`CSC(=Nc1ccccc1)/N=C(\SCc1ccccc1)N(C)C`: the TGI stood at 3.9 µM.
As to `CC(=O)OC1COC(n2c(=S)n(-c3ccccc3)c(=O)c3ccccc32)C(OC(C)=O)C1OC(C)=O` (centres undefined), the TGI was more than 100 µM.
Regarding `Cc1ccc(NC(=O)C(=O)CC(=O)c2sc(Nc3c(C)cccc3C)nc2C)cc1C`, the TGI is more than 100 µM.
Take `CN(CCCNC(=O)CCOCCOCCOCCNC(=O)Cc1ccc2ccc3cccc4ccc1c2c34)CCCNc1cc(-c2ccc3ccccc3c2)nc2ccccc12`: the GI50 was 0.675 µM and the TGI came to 2.09 µM.
Take `COc1cc(C2c3cc4c(cc3OC(N3CCNCC3)C2C)OCO4)cc(OC)c1OC` (centres undefined): the TGI was more than 100 µM.
As for `NS(=O)(=O)OCCCCCCCOS(N)(=O)=O`, the TGI turned out to be 1990 µM.
Same read-out and setting: the same measure for `CNc1ncc(-c2nnnn2-c2ccccc2)c(CN(C)C)n1`: more than 100 µM.
The molecule `O=[N+]([O-])c1ccc(O)c(/C=N/NC(=S)N2CCCCC2)c1` displayed a TGI of more than 62.3 µM.
Consider `O=P(O)(O)C1(P(=O)(O)O)CC1`, for which the TGI was more than 100 µM.
Molecule `COC(=O)CSSCc1ccc([N+](=O)[O-])cc1` had a TGI of 51.5 µM.
Same read-out and setting: the same measure for `CC(=O)NNc1nc(C)c(C(=O)NNC(=O)C(=O)Nc2ccc(Cl)cc2Cl)s1`: more than 100 µM; for `Nc1ncnc2c1ncn2C1OC(CO)C(O)C1N` (centres undefined): more than 100 µM.
For the molecule `CC(C)(C)C(C#N)(C#N)c1ccc(C(C#N)(C#N)C(C)(C)C)nn1`, the TGI is more than 100 µM.
As to `COc1cc(-c2nn(-c3cccc(NC(=O)c4ccc(Cl)c(C(F)(F)F)c4)c3)cc2-c2ccncc2)ccc1Cl`, the GI50 was 14 µM and the TGI is more than 32.5 µM.
In the case of `CC1=C(Nc2ccc(N3CCN(C)CC3)cc2)C(=O)c2cncnc2C1=O`, the GI50 is 16.1 µM and the TGI came to 32.5 µM.
For the molecule `NC(=S)c1c(N)n(C2OC(CO)C(O)C2O)c2ncnc(N)c12` (centres undefined), the GI50 was 0.331 µM.
For the molecule `NNC(=O)c1cc(=O)[nH][nH]1`, the TGI was more than 100 µM.
Regarding `O=C1c2ccccc2C(=O)c2c(OCCOCCO)cccc21`, the TGI was more than 100 µM.
With `CN(C)c1cc[n+](-c2nc(/N=C(\[O-])C(F)(F)F)nc3c2ncn3C2CC(O)C(CO)O2)cc1` (centres undefined), the TGI is more than 100 µM.
For the molecule `CCOC(=O)C1=C(C)N(c2ccc(OC)cc2)C2(O)C=CC(=O)C3=C(O)c4ccccc4C(=O)C312` (centres undefined), the TGI was 41.4 µM.
In turn, `Cc1nc2c(=S)n(C)ncc2[nH]1` registered a TGI of more than 100 µM.
Still for that read-out and setting: the same measure for `S=C(Nc1ccc2cn[nH]c2c1)Nc1ccc2cn[nH]c2c1`: more than 100 µM; for `CCOc1ccc(NC(=O)CC2C(=O)Nc3ccccc3S2(=O)=O)cc1` (centres undefined): more than 100 µM.
Consider `COC(=O)C=Cc1ccc2nncnc2c1` (mixture of isomers), for which the TGI is more than 100 µM.
In turn, `C[N+]1(CCN[N+]2(C)CCCCC2)CCc2ccccc2C1` (centres undefined) came in with a TGI of more than 100 µM.
Take `CN1CSC(=S)N(Cc2ccccc2)C1`: the GI50 is 19.8 µM and the TGI is more than 100 µM.
In the case of `CC1(c2ccc(Cl)cc2)C2C(=O)NC(=O)C1C(=O)NC2=O` (centres undefined), the TGI is more than 100 µM.
As to `NC(Cc1ccc(S(=O)(=O)O)cc1)C(=O)NC(Cc1ccc(S(=O)(=O)O)cc1)C(=O)O` (centres undefined), the TGI is more than 100 µM.
`CCOC(=O)N(c1ccccc1)N(CC)C(=O)/C(C)=N/Nc1ccc([N+](=O)[O-])cc1` displayed a TGI of 49.7 µM.
Take `CN1C(=O)C2(c3ccccc31)N(c1ccc(Cl)cc1)C(=O)C2(c1ccccc1)c1ccccc1` (centres undefined): the GI50 is more than 100 µM and the TGI is more than 100 µM.
For the molecule `O=C(Nc1nc2ccccc2s1)Nc1ccc([N+](=O)[O-])cc1Cl`, the GI50 was 3.22 µM and the TGI was 10.3 µM.
`CCOC(=O)COc1ccc2c(C)cc(=O)oc2c1` came in with a TGI of more than 100 µM.
Turning to `CN(C)c1cccc(NC2=NCCO2)c1`, the TGI is more than 100 µM.
On the same count and under the same terms, to `Cn1nc(-c2ccccc2)c2c(/C=C/c3ccccc3)onc2c1=O` belongs more than 100 µM.
The molecule `Clc1ccc(OCc2nn3c(CCc4nnc5sc(COc6ccc(Cl)cc6)nn45)nnc3s2)cc1` gave a TGI of more than 100 µM.
Same read-out and setting: the same measure for `CC(=O)NC(CC(C)C)C(=O)NC(Cc1ccccc1)C(=S)N1CCCC1` (centres undefined): more than 100 µM; for `C=C1C(=O)OC2/C=C(/C)C(OC(C)=O)C/C=C(\C)C(OC(=O)C3(C)OC3C)C(O)C12` (centres undefined): more than 100 µM.
As for `CC(=O)[O][Hg][c]1c(C)c(C)cc(C)c1C`, the GI50 is 1.87 µM and the TGI turned out to be 3.68 µM.
Regarding `N#C/C(=C/NC(=S)c1ccncc1)C(N)=O`, the TGI is more than 100 µM.
Turning to `COC(=O)c1ccc(NC(=O)Oc2ccc(N(CCCl)CCCl)cc2)cc1`, the GI50 is 55.6 µM and the TGI is more than 100 µM.
For `O=S(=O)(c1cnccc1N1CCN(CCO)CC1)N1CCCC1`, the TGI was more than 100 µM.
For the molecule `Cc1cc(Cl)nc(N(CCCNc2ccnc3cc(Cl)ccc23)Cc2ccco2)n1`, the GI50 was 2.63 µM and the TGI came to 11.3 µM.
The molecule `CN(C)/N=C1\CC(c2ccccc2)C(C#N)(C#N)C1(C#N)C#N` (centres undefined) came in with a TGI of 53.5 µM.
The molecule `Cc1cc(=O)[nH]c(NN2C(Cl)C(=O)C2c2cccc(Cl)c2)n1` (centres undefined) had a TGI of more than 100 µM.
On the same count and under the same terms, to `CC(=N\N)/C(C)=N/N=C(C)/C(C)=N/N=C(C)/C(C)=N/N` belongs more than 100 µM.
The same measure, in the same setting: to `CN(C)CCNC(=O)c1cccc2c1Oc1c(cccc1[N+](=O)[O-])O2` belongs 24.5 µM.
As for `COc1cc2c3c(n(C)c(=O)c2cc1OC)-c1ccc(C#N)cc1C3=O`, the GI50 was more than 100 µM and the TGI is more than 100 µM.
